Test results taken from PMC5599018.
No constants are given. Whether binding was seen depends on the method and setting. Binding seen in cells or lysates may run through a third protein. Some results given as binding are weak or reduced against the parent protein; the word gives no strength.

The chains behind the UniProt entries cited, without tags or fusion partners. Where a name states a change or a piece, a line headed by the entry shows the natural chain unless it says otherwise. A line that says so, or that is headed by a name, gives the form on record, which may keep a tag or linker.
UniProt O00443: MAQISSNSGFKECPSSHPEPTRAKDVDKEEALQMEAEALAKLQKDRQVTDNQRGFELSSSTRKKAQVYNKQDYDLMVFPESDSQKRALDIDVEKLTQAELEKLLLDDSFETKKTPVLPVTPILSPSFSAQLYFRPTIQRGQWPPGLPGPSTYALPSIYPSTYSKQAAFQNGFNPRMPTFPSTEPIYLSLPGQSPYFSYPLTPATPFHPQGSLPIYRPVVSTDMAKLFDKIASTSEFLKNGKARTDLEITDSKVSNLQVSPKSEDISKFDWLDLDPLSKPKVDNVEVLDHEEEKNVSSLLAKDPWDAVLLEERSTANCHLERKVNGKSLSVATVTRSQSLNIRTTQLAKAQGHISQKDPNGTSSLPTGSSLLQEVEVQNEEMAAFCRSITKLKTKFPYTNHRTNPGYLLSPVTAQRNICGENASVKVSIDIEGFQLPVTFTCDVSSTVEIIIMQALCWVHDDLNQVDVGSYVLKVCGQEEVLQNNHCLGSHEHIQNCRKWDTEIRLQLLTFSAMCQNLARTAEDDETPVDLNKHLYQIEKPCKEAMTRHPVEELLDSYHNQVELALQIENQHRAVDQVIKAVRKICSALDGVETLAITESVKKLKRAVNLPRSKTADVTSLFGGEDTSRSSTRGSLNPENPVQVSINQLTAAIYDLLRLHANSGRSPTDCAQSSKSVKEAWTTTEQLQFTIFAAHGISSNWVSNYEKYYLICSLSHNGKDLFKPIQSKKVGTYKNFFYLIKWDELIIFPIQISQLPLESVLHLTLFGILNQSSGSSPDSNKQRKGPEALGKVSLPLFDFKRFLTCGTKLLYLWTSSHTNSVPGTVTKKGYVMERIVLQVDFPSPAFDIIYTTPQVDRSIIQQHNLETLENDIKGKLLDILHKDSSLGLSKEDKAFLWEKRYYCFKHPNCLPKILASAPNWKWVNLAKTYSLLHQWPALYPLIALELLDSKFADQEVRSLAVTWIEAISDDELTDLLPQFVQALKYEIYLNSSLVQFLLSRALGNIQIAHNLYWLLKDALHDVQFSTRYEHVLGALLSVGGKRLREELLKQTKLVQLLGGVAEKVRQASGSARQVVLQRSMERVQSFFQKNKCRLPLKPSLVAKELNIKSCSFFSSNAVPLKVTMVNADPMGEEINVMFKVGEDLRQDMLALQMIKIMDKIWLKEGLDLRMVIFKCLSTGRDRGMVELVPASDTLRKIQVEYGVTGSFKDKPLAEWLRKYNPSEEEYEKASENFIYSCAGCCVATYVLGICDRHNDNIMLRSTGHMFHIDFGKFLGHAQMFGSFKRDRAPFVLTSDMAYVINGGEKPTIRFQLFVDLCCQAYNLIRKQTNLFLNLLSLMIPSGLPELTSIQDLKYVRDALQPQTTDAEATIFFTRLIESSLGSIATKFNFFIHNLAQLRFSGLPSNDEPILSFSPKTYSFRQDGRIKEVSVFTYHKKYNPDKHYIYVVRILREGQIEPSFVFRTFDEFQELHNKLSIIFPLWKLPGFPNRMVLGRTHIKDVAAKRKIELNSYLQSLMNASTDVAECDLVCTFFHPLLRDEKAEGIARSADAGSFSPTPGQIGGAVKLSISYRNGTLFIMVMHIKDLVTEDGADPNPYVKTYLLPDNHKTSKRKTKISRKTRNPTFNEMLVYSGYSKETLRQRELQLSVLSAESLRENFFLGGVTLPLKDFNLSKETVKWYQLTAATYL
Kinase-Dead PI3K-C2α (KD-V5-PI3K-C2α) (O00443, form named): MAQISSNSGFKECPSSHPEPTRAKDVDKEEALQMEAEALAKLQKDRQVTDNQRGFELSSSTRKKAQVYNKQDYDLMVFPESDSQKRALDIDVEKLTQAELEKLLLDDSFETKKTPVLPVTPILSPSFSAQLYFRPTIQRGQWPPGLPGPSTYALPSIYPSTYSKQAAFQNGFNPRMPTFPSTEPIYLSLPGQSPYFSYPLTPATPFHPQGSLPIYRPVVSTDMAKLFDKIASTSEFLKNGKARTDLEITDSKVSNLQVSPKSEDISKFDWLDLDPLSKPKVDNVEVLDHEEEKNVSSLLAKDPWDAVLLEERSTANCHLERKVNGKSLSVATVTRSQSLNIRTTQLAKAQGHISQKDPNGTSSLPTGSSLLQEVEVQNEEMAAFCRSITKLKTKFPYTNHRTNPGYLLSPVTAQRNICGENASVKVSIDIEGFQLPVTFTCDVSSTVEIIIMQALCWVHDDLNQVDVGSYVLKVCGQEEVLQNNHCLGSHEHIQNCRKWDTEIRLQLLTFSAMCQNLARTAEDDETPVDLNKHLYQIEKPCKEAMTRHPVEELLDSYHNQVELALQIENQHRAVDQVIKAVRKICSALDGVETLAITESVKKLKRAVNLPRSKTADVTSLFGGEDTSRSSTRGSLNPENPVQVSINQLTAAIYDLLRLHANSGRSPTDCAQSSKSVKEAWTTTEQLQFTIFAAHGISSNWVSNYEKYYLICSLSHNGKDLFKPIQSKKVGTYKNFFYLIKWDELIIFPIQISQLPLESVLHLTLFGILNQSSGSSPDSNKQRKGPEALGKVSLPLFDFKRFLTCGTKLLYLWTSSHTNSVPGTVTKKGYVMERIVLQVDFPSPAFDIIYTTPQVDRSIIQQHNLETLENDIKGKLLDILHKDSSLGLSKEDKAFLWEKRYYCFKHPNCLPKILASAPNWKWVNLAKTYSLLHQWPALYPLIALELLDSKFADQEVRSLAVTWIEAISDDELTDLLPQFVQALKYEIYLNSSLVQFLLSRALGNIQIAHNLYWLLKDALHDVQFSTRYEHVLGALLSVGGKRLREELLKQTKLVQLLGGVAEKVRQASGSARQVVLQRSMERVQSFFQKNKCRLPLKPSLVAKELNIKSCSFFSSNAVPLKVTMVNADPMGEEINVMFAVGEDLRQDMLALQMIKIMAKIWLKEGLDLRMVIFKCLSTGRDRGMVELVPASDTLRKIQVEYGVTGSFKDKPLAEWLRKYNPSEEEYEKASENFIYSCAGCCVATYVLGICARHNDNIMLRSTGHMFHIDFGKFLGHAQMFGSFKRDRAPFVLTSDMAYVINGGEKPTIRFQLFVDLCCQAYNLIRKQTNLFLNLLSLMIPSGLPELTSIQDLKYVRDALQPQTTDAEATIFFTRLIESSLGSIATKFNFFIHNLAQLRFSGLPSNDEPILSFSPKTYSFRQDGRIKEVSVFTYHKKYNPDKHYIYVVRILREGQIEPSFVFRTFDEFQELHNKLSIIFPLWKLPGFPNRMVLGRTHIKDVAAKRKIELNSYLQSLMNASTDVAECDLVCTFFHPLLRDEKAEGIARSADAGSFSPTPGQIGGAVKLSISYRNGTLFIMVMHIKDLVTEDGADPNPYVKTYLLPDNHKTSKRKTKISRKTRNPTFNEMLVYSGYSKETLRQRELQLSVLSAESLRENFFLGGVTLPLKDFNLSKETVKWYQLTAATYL
UniProt Q8NEB9: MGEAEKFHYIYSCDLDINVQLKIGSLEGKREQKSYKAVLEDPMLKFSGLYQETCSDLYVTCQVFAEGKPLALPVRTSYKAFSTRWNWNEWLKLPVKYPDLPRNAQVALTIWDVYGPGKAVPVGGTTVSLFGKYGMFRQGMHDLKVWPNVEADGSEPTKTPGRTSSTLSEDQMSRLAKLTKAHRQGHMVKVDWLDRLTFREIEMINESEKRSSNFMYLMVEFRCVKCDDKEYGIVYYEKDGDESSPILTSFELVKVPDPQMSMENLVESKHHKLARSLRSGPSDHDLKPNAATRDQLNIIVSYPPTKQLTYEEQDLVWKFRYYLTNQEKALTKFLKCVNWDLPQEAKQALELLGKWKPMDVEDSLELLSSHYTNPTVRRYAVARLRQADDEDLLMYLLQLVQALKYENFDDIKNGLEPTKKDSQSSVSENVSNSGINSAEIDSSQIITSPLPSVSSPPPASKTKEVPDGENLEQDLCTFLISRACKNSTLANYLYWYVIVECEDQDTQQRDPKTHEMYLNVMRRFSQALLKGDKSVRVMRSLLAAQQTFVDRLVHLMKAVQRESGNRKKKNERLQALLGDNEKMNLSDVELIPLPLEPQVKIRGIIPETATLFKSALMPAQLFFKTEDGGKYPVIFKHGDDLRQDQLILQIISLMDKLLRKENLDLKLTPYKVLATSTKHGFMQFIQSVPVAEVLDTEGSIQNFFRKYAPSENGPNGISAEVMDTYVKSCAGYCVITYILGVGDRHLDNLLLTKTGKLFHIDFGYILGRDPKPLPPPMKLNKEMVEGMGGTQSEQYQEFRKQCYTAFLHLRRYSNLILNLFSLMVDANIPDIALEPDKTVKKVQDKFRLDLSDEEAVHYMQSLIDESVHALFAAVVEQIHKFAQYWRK
UniProt Q6ZNE5: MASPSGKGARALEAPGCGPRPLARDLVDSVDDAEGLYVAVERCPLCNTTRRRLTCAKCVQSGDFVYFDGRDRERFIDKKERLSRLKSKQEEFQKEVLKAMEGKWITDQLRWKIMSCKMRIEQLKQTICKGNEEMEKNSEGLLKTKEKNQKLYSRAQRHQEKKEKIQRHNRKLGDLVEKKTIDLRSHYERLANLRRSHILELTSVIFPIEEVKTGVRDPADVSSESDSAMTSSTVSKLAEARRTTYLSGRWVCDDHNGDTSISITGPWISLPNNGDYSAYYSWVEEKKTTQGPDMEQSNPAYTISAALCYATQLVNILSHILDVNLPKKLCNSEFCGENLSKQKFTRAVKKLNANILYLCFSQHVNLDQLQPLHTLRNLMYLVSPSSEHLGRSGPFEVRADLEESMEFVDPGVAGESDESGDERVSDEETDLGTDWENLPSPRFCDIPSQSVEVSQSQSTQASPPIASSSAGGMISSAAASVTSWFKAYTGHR
UniProt Q00610: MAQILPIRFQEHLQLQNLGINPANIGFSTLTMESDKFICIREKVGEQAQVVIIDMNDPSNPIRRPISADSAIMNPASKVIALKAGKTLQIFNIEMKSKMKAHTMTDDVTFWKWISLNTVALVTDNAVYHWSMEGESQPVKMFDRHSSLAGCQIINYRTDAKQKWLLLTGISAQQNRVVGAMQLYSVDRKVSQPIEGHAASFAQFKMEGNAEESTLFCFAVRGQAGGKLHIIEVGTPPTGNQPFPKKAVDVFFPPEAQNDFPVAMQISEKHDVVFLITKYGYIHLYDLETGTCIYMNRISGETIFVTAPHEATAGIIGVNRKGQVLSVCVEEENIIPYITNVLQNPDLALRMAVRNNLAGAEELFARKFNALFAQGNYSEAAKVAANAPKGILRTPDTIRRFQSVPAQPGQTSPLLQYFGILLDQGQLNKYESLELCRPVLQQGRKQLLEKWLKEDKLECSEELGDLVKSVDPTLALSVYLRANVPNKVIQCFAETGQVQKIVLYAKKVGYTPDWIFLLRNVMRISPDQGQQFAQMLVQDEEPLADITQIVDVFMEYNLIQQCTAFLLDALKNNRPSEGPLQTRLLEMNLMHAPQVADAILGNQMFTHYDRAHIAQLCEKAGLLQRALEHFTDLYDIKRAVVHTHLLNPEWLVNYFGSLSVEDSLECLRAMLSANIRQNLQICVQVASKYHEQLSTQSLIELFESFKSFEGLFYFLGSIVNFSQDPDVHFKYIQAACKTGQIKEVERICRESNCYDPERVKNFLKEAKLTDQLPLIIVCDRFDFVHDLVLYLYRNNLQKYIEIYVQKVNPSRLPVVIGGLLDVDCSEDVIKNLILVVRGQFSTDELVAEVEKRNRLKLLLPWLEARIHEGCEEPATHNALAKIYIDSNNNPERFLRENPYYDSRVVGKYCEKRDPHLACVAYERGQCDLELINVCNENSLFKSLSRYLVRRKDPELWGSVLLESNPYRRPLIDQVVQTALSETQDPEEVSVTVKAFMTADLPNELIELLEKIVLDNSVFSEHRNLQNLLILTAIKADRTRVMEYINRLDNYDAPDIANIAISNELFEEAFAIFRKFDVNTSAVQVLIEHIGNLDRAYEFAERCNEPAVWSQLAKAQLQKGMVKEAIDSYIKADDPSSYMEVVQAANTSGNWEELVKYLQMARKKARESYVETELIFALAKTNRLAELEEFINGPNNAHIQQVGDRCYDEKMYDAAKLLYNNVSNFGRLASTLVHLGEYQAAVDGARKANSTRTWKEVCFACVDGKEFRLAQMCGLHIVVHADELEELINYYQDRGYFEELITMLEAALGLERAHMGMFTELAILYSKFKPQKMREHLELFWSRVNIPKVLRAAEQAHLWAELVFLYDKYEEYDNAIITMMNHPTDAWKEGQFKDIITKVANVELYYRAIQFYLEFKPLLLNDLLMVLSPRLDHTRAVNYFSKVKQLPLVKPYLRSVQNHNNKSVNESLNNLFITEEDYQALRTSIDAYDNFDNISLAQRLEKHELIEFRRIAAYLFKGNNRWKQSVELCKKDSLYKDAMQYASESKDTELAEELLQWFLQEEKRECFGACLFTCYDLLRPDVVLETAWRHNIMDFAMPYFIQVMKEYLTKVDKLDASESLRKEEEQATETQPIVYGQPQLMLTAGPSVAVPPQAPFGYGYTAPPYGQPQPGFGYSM

Columns and labels:
Assay in all cases: co-IP; V5 antibody (1 μg) on Dynabead-protein G; supernatant of lysed transfected 293FT cells added overnight at 4°C; beads washed with 1x PBS, 0.1% Triton X-100; Western blot of endogenous proteins
[1] = target: V5-PI3K-C2α (phosphatidylinositol-4-phosphate 3-kinase catalytic subunit type 2 alpha) (human) (UniProt O00443)
[2] = target: Kinase-Dead PI3K-C2α (KD-V5-PI3K-C2α) (human) (UniProt O00443)
[3] = target: V5-PI3K-C3 (phosphatidylinositol 3-kinase catalytic subunit type 3) (human) (UniProt Q8NEB9)

Molecule	binding [1]	binding [2]	binding [3]
ATG14L (from UniProt Q6ZNE5 1-492)	binds	binds	
PI3K-C2α (endogenous) (from UniProt O00443 1-1686) (enzyme)			no binding
clathrin (from UniProt Q00610 1-1675)	binds	binds	binds
ATG9A (Autophagy Related Protein 9) (protein, UniProt Q7Z3C6 1-839) MAQFDTEYQRLEASYSDSPPGEEDLLVHVAEGSKSPWHHIENLDLFFSRVYNLHQKNGFTCMLIGEIFELMQFLFVVAFTTFLVSCVDYDILFANKMVNHSLHPTEPVKVTLPDAFLPAQVCSARIQENGSLITILVIAGVFWIHRLIKFIYNICCYWEIHSFYLHALRIPMSALPYCTWQEVQARIVQTQKEHQICIHKRELTELDIYHRILRFQNYMVALVNKSLLPLRFRLPGLGEAVFFTRGLKYNFELILFWGPGSLFLNEWSLKAEYKRGGQRLELAQRLSNRILWIGIANFLLCPLILIWQILYAFFSYAEVLKREPGALGARCWSLYGRCYLRHFNELEHELQSRLNRGYKPASKYMNCFLSPLLTLLAKNGAFFAGSILAVLIALTIYDEDVLAVEHVLTTVTLLGVTVTVCRSFIPDQHMVFCPEQLLRVILAHIHYMPDHWQGNAHRSQTRDEFAQLFQYKAVFILEELLSPIVTPLILIFCLRPRALEIIDFFRNFTVEVVGVGDTCSFAQMDVRQHGHPQWLSAGQTEASVYQQAEDGKTELSLMHFAITNPGWQPPRESTAFLGFLKEQVQRDGAAASLAQGGLLPENALFTSIQSLQSESEPLSLIANVVAGSSCRGPPLPRDLQGSRHRAEVASALRSFSPLQPGQAPTGRAHSTMTGSGVDARTASSGSSVWEGQLQSLVLSEYASTEMSLHALYMHQLHKQQAQAEPERHVWHRRESDESGESAPDEGGEGARAPQSIPRSASYPCAAPRPGAPETTALHGGFQRRYGGITDPGTVPRVPSHFSRLPLGGWAEDGQSASRHPEPVPEEGSEDELPPQVHKV	binds	binds	binds
